# Screen size: about 50,000 compounds; about 800 (1.6%) showed an effect of 50% or more. The list shows a part of the results.
# Target: Bcl-2-like protein 10 (Homo sapiens) (UniProt Q9HD36)
# Test: TR3 peptide-Bcl-B binding displacers, biochemical primary FP assay, phenotype converters (AID 1240);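 also: 0% = Bcl-B with tracer peptide and DMSO and 100% = tracer peptide lacking Bcl-B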
# Conditions: GST-Bcl-B / FITC-TR3 peptide fluorescence polarization; stronger effect = higher value; compound at 3.75 mg/L
# Chain of UniProt Q9HD36 (Q9HD36 whole entry, looked up): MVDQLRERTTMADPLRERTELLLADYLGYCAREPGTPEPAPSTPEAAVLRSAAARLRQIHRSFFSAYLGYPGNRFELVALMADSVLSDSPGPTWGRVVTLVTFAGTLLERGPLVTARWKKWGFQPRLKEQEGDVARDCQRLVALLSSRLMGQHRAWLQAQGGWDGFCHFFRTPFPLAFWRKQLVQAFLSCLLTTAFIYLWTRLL
row,SMILES,displacement
1,FC(F)(F)c1ccccc1C=NN1CCN(c2ccc(Cl)cc2)CC1,-0.6%
2,COc1ccc(N(CC(=O)Nc2cccc(Br)c2)S(C)(=O)=O)cc1,8.6%
3,N#Cc1c(-c2c3ccccc3cc3ccccc23)[nH]c(=S)[nH]c1=O,5.2%
4,CCC(C(=O)Nc1ccc(F)cc1F)c1ccccc1 (stereo not drawn),35%
5,CC(=O)Nc1ccc(C(=O)N2CCN(c3ccccc3)CC2)cc1,11.9%
6,O=C(c1ccc(N2CCN(C(=O)c3cccc(F)c3)CC2)cc1)c1cccc(F)c1,-2.7%
7,O=C(Nc1cccc2ccccc12)c1ccccc1[N+](=O)[O-],-1.8%
8,O=[N+]([O-])c1cc(C(F)(F)F)ccc1NCCCCNS(=O)(=O)c1ccccc1,17%
9,O=C(Nc1nc(-c2ccc(Br)cc2)cs1)c1ccc([N+](=O)[O-])cc1,6.5%
10,COC(=O)c1ccc(/C=C2/C(=O)NN(c3ccc(C)cc3)C2=O)cc1,19%
11,Cc1ccc(NC(=O)CN(c2ccc(C)c(Cl)c2)S(C)(=O)=O)cc1C,19.2%
12,CCC(C(=O)N1CCN(Cc2ccccc2)CC1)c1ccccc1 (stereo not drawn),-5.6%
13,COc1ccc(CCN/C(C)=C/c2oc3ccc(O)cc3c2[N+](=O)[O-])cc1OC,-4.9%
14,COC(=O)C1=C(C)N(C)C(C)=C(C(=O)OC)C1c1ccc(Cl)c(Cl)c1,-0.4%
15,Cc1ccc(N2C(=O)CC(NCC3CCCO3)C2=O)cc1 (stereo not drawn),4.9%
16,Cc1cc2c(cc1C)N(Cc1ccc(Cl)cc1)C1=NCCCN12,-2%
17,Nc1sc(=S)nc2sc3c(c12)CCN(Cc1ccccc1)C3,74%
18,O=C(COc1ccccc1[N+](=O)[O-])N/N=C/c1ccc(OC(=O)c2cccc(F)c2)cc1,4.5%
19,O=C(Nc1cccc(NC(=O)c2ccccc2[N+](=O)[O-])c1)c1ccco1,11.9%
20,CCC(=O)Nc1ccc(-c2nc3cc(Cl)ccc3o2)cc1,10.4%
21,Cc1ccc(NC2CC(C)N(C(=O)C(C)C)c3ccc(C)cc32)cc1 (stereo not drawn),4.2%
22,COc1ccc(N=C(Sc2nc3ccccc3s2)c2ccc([N+](=O)[O-])cc2[N+](=O)[O-])cc1,3.9%
23,COc1ccc(CC(=O)N2CCN(c3ccc(F)cc3)CC2)cc1OC,-3.8%

row,SMILES,displacement
1,CCOc1ccc(C(=O)Nc2ccc(Cl)cn2)cc1[N+](=O)[O-],14.4%
2,COc1ccc(C2CC(O)(C#Cc3ccccc3)C(C)C(c3ccc(OC)cc3)N2)cc1 (stereo not drawn),-10%
3,CC(=O)Nc1ccc(S(=O)(=O)NNc2ccccc2)cc1,-7.4%
4,Cc1onc(-c2ccccc2)c1C(=O)Nc1cccc(Oc2ccccc2)c1,-4.2%
5,COc1cc(C2CC(=O)Nc3c2ccc2ccccc32)cc(OC)c1OC(C)=O (stereo not drawn),-9.1%
6,COc1ccccc1NC(=O)/C(=C\c1cccs1)NC(=O)c1ccccc1,11.6%
7,CCOC(=O)C1=C(C)N=c2s/c(=C/c3cc(Br)cc(OC)c3O)c(=O)n2C1c1cccs1 (stereo not drawn),9.2%
8,Cc1ccc(CN2CCN(N=Cc3cccc([N+](=O)[O-])c3)CC2)c(C)c1,9.2%
9,Cc1ccc(Nc2cc(N3CCCCC3)c(N)c3c2C(=O)c2ccccc2C3=O)cc1,6.3%
10,COCCCNC(=O)CN(c1ccc(OC)cc1OC)S(C)(=O)=O,-7.9%
11,COc1ccc(S(=O)(=O)n2cnc(C)c2)cc1,14.9%
12,CC(C)(C)c1ccc(-c2nnc(N)s2)cc1,-11.5%
13,CCOC(=O)c1ccccc1NC(=O)c1cccc([N+](=O)[O-])c1,15%
14,Cc1cccc(C(=O)Nc2ccc(OC(F)(F)F)cc2)c1,14.3%
15,Fc1cccc(Nc2cc(-n3cccn3)ncn2)c1,-10.3%
16,Cc1ccc(S(=O)(=O)NC(C)C2C3CC4CC(C3)CC2C4)cc1 (stereo not drawn),6.9%
17,NS(=O)(=O)c1cccc(NC(=O)c2ccccc2I)c1,4.5%
18,CCOc1ccc(-c2cc(C(=O)O)c3ccccc3n2)c(OCC)c1,-5.8%
19,COc1ccc(-c2ccc(C3NC(=O)c4c(sc5c4CCN(C)C5)N3)o2)cc1Cl (stereo not drawn),4.1%
20,O=c1[nH]nc(SCc2c(F)cccc2Cl)c(=O)[nH]1,-11%
21,CCOC(=O)c1ccc2[nH]cc(C(=O)OCC)c(=O)c2c1,1.6%
22,COc1ccc(C(=O)Nc2cc(C)cc(C)n2)cc1,13.1%
23,COC(=O)C1=CNC=C(C(=O)OC)C1c1cc(OC)c(OC)c(OC)c1,1.8%

row,SMILES,displacement
1,CCOc1ccc(NC(=O)c2ccc(Cl)c([N+](=O)[O-])c2)cc1,8.9%
2,O=C(Nc1ccc(I)cc1Cl)c1cc2ccccc2oc1=O,-13.9%
3,Cc1oc(C(=O)O)cc1COc1ccc(-c2ccccc2)cc1,11.6%
4,CCOc1ccccc1NC(=O)CN(c1cccc(C(F)(F)F)c1)S(C)(=O)=O,0.7%
5,COCCCNC(=O)CC(=O)N/N=C/c1cccc(OC)c1OC,11.3%
6,COc1cccc(/C=C2\SC(=S)N(Cc3ccccc3)C2=O)c1O,0%
7,O=C(N=Nc1c(O)[nH]c2c(Br)cc(Br)cc12)C(O)c1ccccc1 (stereo not drawn),2.1%
8,CCN(CC)Cc1c(O)ccc2c(=O)c(Oc3ccccc3Br)coc12,-4.6%
9,CCOC(=O)CN1C(c2cc(OC)c(OC)c(OC)c2)=Nc2ccc(Br)cc2C1c1ccccc1 (stereo not drawn),-8.8%
10,C=CCc1cccc2cc(C(=O)Nc3cc(OC)ccc3OC)c(=O)oc12,2%
11,O=C1C=C(Nc2ccccc2)C(=O)N1Cc1ccccc1,12.4%
12,COc1ccc(N2C(=O)NC(=O)/C(=C/c3ccc(Sc4ccc(C)cc4)o3)C2=O)cc1,125%
13,Cc1sc(NC(=O)c2ccc([N+](=O)[O-])cc2Cl)nc1-c1ccccc1,-4%
14,O=C(CSc1nnc(-c2ccco2)n1-c1ccccc1)NCc1ccco1,1.8%
15,O=C(Cc1ccc(Cl)cc1)Nc1cc(Cl)c(Cl)cc1Cl,0.6%
16,CCOc1ccc2nc(NC(=O)c3ccccc3[N+](=O)[O-])sc2c1,-6.9%
17,O=C(Nc1ccc(S(=O)(=O)Nc2ncccn2)cc1)c1ccco1,0.6%
18,O=C1NC(=O)C(=Cc2cccc(OS(=O)(=O)c3ccc([N+](=O)[O-])cc3)c2)C(=O)N1,-1.7%
19,CN(C)c1ccc(/C=N/N2C(=O)c3cccc4cccc(c34)C2=O)cc1,-10.7%
20,NC(=O)CSc1nc2ccccc2n1CCOc1ccc(Cl)cc1,8.4%
21,O=C(O)c1ccccc1-c1ccccc1C(=O)N(Cc1ccccc1)c1ccccc1,-5.1%
22,CCP(=O)(CC)C(C)(C)CP(=O)(c1ccccc1)c1ccccc1,14.6%

# Reference: PubChem BioAssay AID1240 (Sanford-Burnham Center for Chemical Genomics, 2008)
